Results taken from PMC12136788.
This is one part of the list.

T1: UNK ZnF1-3 (human, UniProt Q9C0B0 31-174)
T1 sequence: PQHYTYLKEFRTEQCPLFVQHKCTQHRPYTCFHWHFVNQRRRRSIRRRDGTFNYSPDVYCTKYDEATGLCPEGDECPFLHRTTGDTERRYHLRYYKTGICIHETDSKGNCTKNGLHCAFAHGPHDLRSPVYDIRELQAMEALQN

B1: chr12:32660859:32660860:-_ENSMUSG00000002997_ENSMUST00000036497|mus_hu|motif|central (ssRNA)
RNA: GGGAGUUCUACAGUCCGACGAUCGUCACCUUGAUCAAUUACAUGCUCCCCAUCUUUGACCAAUUUUUCAAACAUGGCAUCGGAUACUUGAGACAUCUGCUCCGGAUCCAGAUUCUUAAACAGCAGGAUGUCUUUGCAAGCCUCCAACAGAGGAUUGAGCAUCA
B2: chr9:35286173:35286174:+_ENSMUSG00000038119_ENSMUST00000042842|mus_hu|FALSE|FALSE (ssRNA)
RNA: GGGAGUUCUACAGUCCGACGAUCAGUGUUAUUGUUACUUGAUGGAAUGUACGUCCACUUUAGCAUGAUCUGAGUAUCGCUGACAGCCUCUGUGUAUGCAAUGUGAGGUCCAGUUAUUGGACGGCUGGAAAAGCGAUUGGGGAACAACAGAGGAUUGAGCAUCA
B3: chr12:39756943:39756944:-_ENSG00000139116_ENST00000544797|hu_mus|hu_hu_hu_mus_False|1_48 (ssRNA)
RNA: GGGAGUUCUACAGUCCGACGAUCGGUUUGGCUGUUACCCCCAAGGGAAUCCUGCAAGAGUCUUGUCAGCUUAGAGUCUCUGUAAGGGACAUGUGUGGCUCUCUUGCUCUUGUCCCCCAAGGCGCUGAUUACAUUCCCAAGUGCCAACAGAGGAUUGAGCAUCA
B4: chr7:65705475:65705476:+_ENSG00000169902_ENST00000304842|hu_hu|hu_hu_hu_mus_True|38_68 (ssRNA)
RNA: GGGAGUUCUACAGUCCGACGAUCUCUAUUCGGUGAUGGCACUCCAUGGCAUGCUGGCCCAGGUAAAACACAGUCACAGAACUAAUCACCAGACACGCCAAUAGUAAGUUCUGCUUCAGCUUCCCAACCAUCUUGAUGUGGUUACAACAGAGGAUUGAGCAUCA
B5: chr4:57314706:57314707:+_ENSG00000128050_ENST00000264221|hu_mus|hu_hu_hu_mus_True|18_88 (ssRNA)
RNA: GGGAGUUCUACAGUCCGACGAUCCAGAAUUUCAAAAAUAGCUUGUGUAGCAUGACUCAUGAUGUCCACUUCAGUCUGCCCUAUAACAAGGCCAGCAAAACAGAAUUUUGCAGCAAUCAGCUGUUCCUCAGACCACUGUGGAUCCAACAGAGGAUUGAGCAUCA
B6: chr2:202488911:202488912:-_ENSG00000155755_ENST00000286196|hu_mus|hu_hu_hu_mus_False|1_48 (ssRNA)
RNA: GGGAGUUCUACAGUCCGACGAUCAUUGAAACAUUUUUCAUAAUCUCCAGUAGCAUUUCAGCAUUAUGUAACAAAAGCUCAAUUGUAAAUACACAUGUCUUAUAAAAAUACACUUAAAAACACGAGUGGGGAGCGCACAAAUACCAACAGAGGAUUGAGCAUCA
B7: chr6:114281168:114281169:-_ENSG00000196591_ENST00000368632|hu_hu|hu_hu_hu_mus_True|38_38 (ssRNA)
RNA: GGGAGUUCUACAGUCCGACGAUCUUCCAUUUUUCGGUAUAAACCAUAAUUUAGCAGCAAGUUAUGAGUCAUCCGGAUUCUAUGAGGCUUCAUGGGAUGACCCUGUCCAUAAUAAUAAUUGCCAAUAUCACCAUCAUAGUAGUACAACAGAGGAUUGAGCAUCA
B8: chr19:16212804:16212805:+_ENSG00000167460_ENST00000300933|hu_mus|hu_hu_hu_mus_False|1_78 (ssRNA)
RNA: GGGAGUUCUACAGUCCGACGAUCAACAAUUCUGGAGUGAAGGAAAGAUGUAACAUGCAAUUAAUUAAAAGCUCAGUCAGAAGGCACAUGGGCAACAAUGAUCACCCCAGCAUUCUCGCUUGGAAUGCUUAAAGACAGAUGUUUCAACAGAGGAUUGAGCAUCA
B9: chr8:74858975:74858976:-_ENSG00000154582_ENST00000284811|hu_mus|hu_hu_hu_mus_True|8_88 (ssRNA)
RNA: GGGAGUUCUACAGUCCGACGAUCGACCUUGUAGGUAAAAUACAUGCAUACUUUCGAUAGCACAUGUGAGGGGAUCUCUCUAAAAUUGACCUCGUUGGUUUCAUUCUCAGCAAACUGACCUGGACCACUCAACAUGGCCUUUAUCAACAGAGGAUUGAGCAUCA
B10: chr14:78183846:78183847:+_ENSG00000119705_ENST00000557342|hu_hu|hu_hu_hu_mus_False|58_108 (ssRNA)
RNA: GGGAGUUCUACAGUCCGACGAUCUCUGUCUCAAAAAUCUUCAUCAGAUGUUUGAGCUCCGUGCAAAGCCUUUGCUCUUCUAGUGUGAACGUGGAUCUAUGGGAGGGAAAGCACUGUCAGAAAAGGUAAUUUUUUUUUUAAAGACAACAGAGGAUUGAGCAUCA
B11: chr10:70097624:70097625:+_ENSG00000096746_ENST00000354695|hu_mus|motif|central (ssRNA)
RNA: GGGAGUUCUACAGUCCGACGAUCCUUUGAUUUCACUCCUGCUACUCCUGAAGAUCUCAAUAUACCUUGAAAGAACUGAACGGUUUCCUCUUUGCUGCAACCAAAUGGCAGUCCACGAAGUCGCACGGUCCCAUCGCUAGCGUCCAACAGAGGAUUGAGCAUCA
B12: chr7:135612270:135612271:-_ENSG00000105887_ENST00000393085|hu_mus|hu_hu_hu_mus_False|8_38 (ssRNA)
RNA: GGGAGUUCUACAGUCCGACGAUCGUUUUUUUCUGAGAUGUUAAAUAGUACUUCAGUGGAAAACAAAACUUAACCUUUUAUUAAUGCGUGUUGUACCAGAAAGCAAAAUUUUAGCUUCAUUUAUUCACUCAAAAUAUCAUUAAGCAACAGAGGAUUGAGCAUCA
B13: chr9:106594412:106594413:-_ENSMUSG00000040661_ENSMUST00000046502|mus_mus|FALSE|FALSE (ssRNA)
RNA: GGGAGUUCUACAGUCCGACGAUCCACUGUGAUGUCUAACUCAGUAGCCAUAAACCCUCACACUCUGACUGACACUUCAAAAAAGAUCAAUUCAUUUCUUUUUAGUUUACUCUUAGUUUUUCCCUUCCCUGCCCUCCCACUUUCCAACAGAGGAUUGAGCAUCA
B14: chr1:137302511:137302512:-_ENSMUSG00000041879_ENSMUST00000161189|perfect_dup|motif|central (ssRNA)
RNA: GGGAGUUCUACAGUCCGACGAUCCUUAACAGUGCUUUUGAAUUUGCUAUUUUCUAGUAGAGCAUGGACAAAUUCAAAAAUGCGGAAGACGAGAUUUUCAAAGCCCAGGACUUCACCAUCAGAAUCCACAGGAUCUUCUACUUCCAACAGAGGAUUGAGCAUCA
B15: chr7:44244176:44244177:+_ENSG00000106636_ENST00000223369|hu_mus|hu_hu_hu_mus_False|18_108 (ssRNA)
RNA: GGGAGUUCUACAGUCCGACGAUCACUAUCAUUCCGGACGUAGACAUGGCAAAGAUACUCUUGUUCUUUGACAGAAGCUCUGCUGCCUUUCCCCGAGCGUUCCACAAUCAGUUGACUCGUGAAGGUCAUGAAUUCCUGCACACUCAACAGAGGAUUGAGCAUCA
B16: chr16:33496766:33496767:+_ENSMUSG00000022811_ENSMUST00000165418|mus_mus|motif|central (ssRNA)
RNA: GGGAGUUCUACAGUCCGACGAUCUGAUCCAACAUUCUCUGACUGGGUGACUUCAGGUACAUCGGAAGAAUUGAUUGAUAUGCGGGAAGUCACUUCAGUAUCUGCAACGCUGAAGGAAAUCUCAUGCUGUCCAUUAGGUUUGUGCAACAGAGGAUUGAGCAUCA
B17: chr7:19736620:19736621:-_ENSG00000105849_ENST00000222567|hu_mus|motif|central (ssRNA)
RNA: GGGAGUUCUACAGUCCGACGAUCAAGAUGCUGGUUAUUUAUCUACCUGUACAUAUUAAAUUGCUGUCAUUCCUUAUGCUCGGUAUACCGUAGAUGAAGUCAAGAAACAUGGUUGCCAGAAUUUACUCCUUAUGAAACAUUAAGCAACAGAGGAUUGAGCAUCA
B18: chr19:3544227:3544228:-_ENSMUSG00000024908_ENSMUST00000113997|mus_hu|FALSE|FALSE (ssRNA)
RNA: GGGAGUUCUACAGUCCGACGAUCAAAGAAAUGUUUUCUUCUUUGUGGCUCCUUGCCCAUUACAGGUUAUCCUGGUAACAGUUUUCCUCCAAUUUACUGCAUUAGCAGAUUAGCAGGAAUACAGUGGGAUAUGGAUAUGAAACACAACAGAGGAUUGAGCAUCA
B19: 20802431_20802551_1810_CDS_ENSMUSG00000036591_ENSMUST00000173194|mouse|control|control (ssRNA)
RNA: GGGAGUUCUACAGUCCGACGAUCAGUCUGUUUUCGUUCCCCAUUUGAGUCAGGUAUCUGACUUUCAGAAUUGACAGUGGCUGUGGCUUCCGUCUGUCCCUCUAUGUAAUCCCACGAACGAGUUCUAUGAUUAUUGAAGCUAACCAACAGAGGAUUGAGCAUCA
B20: chr7:65705844:65705845:+_ENSG00000169902_ENST00000304842|hu_mus|hu_hu_hu_mus_False|8_68 (ssRNA)
RNA: GGGAGUUCUACAGUCCGACGAUCAAACGGAUCUUUGUUACAUAAAUAAGGUGCCGGCUCCCCAUGUUUAACGAUAACCUCCAGAAGGAAGGCUUGCAUGGCAGAAUCUAGCACUUCAUCUGUGACACCAGCCUCAUCCAAGCGCAACAGAGGAUUGAGCAUCA
B21: chr5:138700276:138700277:+_ENSG00000120727_ENST00000265192|hu_hu|motif|central (ssRNA)
RNA: GGGAGUUCUACAGUCCGACGAUCUUCCAGCAUUUCUUGGAAACAGCGUUCAAUAAAUUCUUCUUCCCAUAACUCCUCUUCGGUUUGUCUGUUGAAUUCUUCUUCAUUUUCCAUCCACAUGUACUCUGCAAAUGGAUUGUCAUCCAACAGAGGAUUGAGCAUCA
B22: chr2:204281756:204281757:+_ENSG00000138443_ENST00000261017|hu_hu|FALSE|FALSE (ssRNA)
RNA: GGGAGUUCUACAGUCCGACGAUCCUUUUCCAAGUAAGAACGUGGAGCCCACGGUGGGUCCUCUUCAGCAUAAGGAUCACUAUACUCAACCACAGCAGCUUCCUCCUCUUCGUAAUCUUCUGGAGGAGGAGGAGGUGGGGGAGACAACAGAGGAUUGAGCAUCA

target: T1, UNK ZnF1-3; test: nsRBNS (natural sequence RNA bind-n-seq); RBNS binding buffer (assumed for nsRBNS): 25 mM Tris pH 7.5, 150 mM KCl, 3 mM MgCl2, 0.01% Triton X-100, 500 ug/ml BSA, 20 U/ml SUPERase-In, 4 C; UNK is unkempt and MSI1 is Musashi-1; names of the RNAs are library labels; protein concentration not given here; high values mean tight binding

Compared with B1, B2 is lower in binding signal: 1.19 enrichment R for the first, 1.04 enrichment R for the second.

Compared with B3, B4 is higher in binding signal: 0.544 enrichment R for the first, 0.67 enrichment R for the second.

Going from B5 to B6, the binding signal rises from 1.07 enrichment R to 1.45 enrichment R.

Compared with B7, B8 is higher in binding signal: 0.862 enrichment R for the first, 1.5 enrichment R for the second.

Compared with B9, B10 is higher in binding signal: 0.617 enrichment R for the first, 1.5 enrichment R for the second.

Compared with B11, B12 is higher in binding signal: 0.772 enrichment R for the first, 0.874 enrichment R for the second.

Compared with B13, B14 is lower in binding signal: 1.18 enrichment R for the first, 1.17 enrichment R for the second.

Compared with B15, B16 is lower in binding signal: 0.652 enrichment R for the first, 0.644 enrichment R for the second.

Compared with B17, B18 is lower in binding signal: 1.14 enrichment R for the first, 0.804 enrichment R for the second.

Going from B19 to B20, the binding signal falls from 0.791 enrichment R to 0.634 enrichment R.

Going from B21 to B22, the binding signal rises from 0.487 enrichment R to 0.895 enrichment R.
